Some of the results follow. These are further read-outs of the screen, such as a control signal, another cell line or another target. No call is given for them. For some of these results: Most of these compounds were active or inconclusive in the main read-out, so they are no random draw. The note in brackets gives the kind of curve behind each potency; many fits are weak.
How the values were obtained:
[1] = qHTS drug screen for cell cycle checkpoint inhibitors in PARPi-resistant BRCA-mutant ovarian cancer cell lines. (AID 1963452); details: PEO1/OlaR viability, CellTiter-Glo luminescence, 96 h
How it was run: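 PEO1, PEO4 and PEO1/OlaR ovarian cancer cells, 600 per well, exposed 96 h at 37C to a dilution series. Viability read by CellTiter-Glo luminescence, normalized to DMSO and empty wells; activity summarized as Z-AUC.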

[2] = qHTS for identification of novel therapeutic agents for treatment of microphthalmiaassociated transcription factor (MiT) renal cell carcinoma (RCC) (AID 1963991); details: CellTiter-Glo, 48 h; for z-score: stronger effect = lower value
How it was run: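 Curves over 11 concentrations were fitted to CellTiter-Glo luminescence, scaled between empty wells (0%) and DMSO (100%) viability. Cells were UOK109, UOK124 and UOK145 TFE3-fusion RCC lines at 500/well, exposed 48 hours at 37 C.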

[3] = measured here: PEO1 parental viability
[4] = TFE3-RCC UOK109 viability, measured here: UOK109 Z-AUC
[5] = TFE3-RCC viability, measured here: UOK124 Z-AUC
[6] = TFE3-RCC viability, measured here: UOK124 cell viability
[7] = TFE3-RCC viability, measured here: UOK145 Z-AUC
[8] = TFE3-RCC viability, measured here: UOK145 cell viability
Tags describe the fitted curve by direction and shape.

Structure (SMILES) | AC50 [1, 3] | AC50 ([1]; measured here: PEO4 viability) | z-score [2, 4] | z-score [2, 5] | AC50 [2, 6] | z-score [2, 7] | AC50 [2, 8]
O=C(CC12CC3CC(CC(C3)C1)C2)Nc1cccc2nc(NCCNCCO)ccc12 | 24.5 µM [falling, single point] | 24.5 µM [falling, single point] | -0.124 | -0.112 | 33.2 µM [falling, single point] | -0.115 | 33.2 µM [falling, single point]
CC1=C[C@@H]2[C@@H]([C@@H](O)C[C@@]3(C)[C@H]2C[C@@H](C)[C@]3(O)C(=O)CO)[C@@]2(C)Cc3cnn(-c4ccccc4)c3C=C12 | 19.5 µM [falling, single point] | 12.3 µM [falling, partial curve] | -0.285 | 0.107 | 18.7 µM [falling, partial curve] | 0.197 | 33.2 µM [falling, single point]
COc1cc2nccc(Oc3ccc(NC(=O)C4(C(=O)Nc5ccc(F)cc5)CC4)cc3)c2cc1OC | 5.49 µM [falling, partial curve] | 2.19 µM [falling, full curve] | -0.546 | 0.261 | 16.6 µM [falling, partial curve] | -0.205 | 10.5 µM [falling, partial curve]
COc1ccc(OC)c(-c2nnc3ccc(-c4ccc(OC)c(O[C@@H]5CCOC5)c4)nn23)c1 | 3.47 µM [falling, full curve] | 0.347 µM [falling, full curve, poor fit] | -0.44 | -0.874 | 8.33 µM [falling, full curve] | -0.619 | 23.5 µM [falling, partial curve]

From PubChem BioAssay (NCATS)
